Test [1] has as its target Matrix metalloproteinase-9 (Homo sapiens, UniProt P14780).
Another test deals with Neutrophil collagenase (Homo sapiens, UniProt P22894).
Another test concerns the target T1, Interstitial collagenase (Homo sapiens, UniProt P03956).
T1 sequence (P03956 whole entry): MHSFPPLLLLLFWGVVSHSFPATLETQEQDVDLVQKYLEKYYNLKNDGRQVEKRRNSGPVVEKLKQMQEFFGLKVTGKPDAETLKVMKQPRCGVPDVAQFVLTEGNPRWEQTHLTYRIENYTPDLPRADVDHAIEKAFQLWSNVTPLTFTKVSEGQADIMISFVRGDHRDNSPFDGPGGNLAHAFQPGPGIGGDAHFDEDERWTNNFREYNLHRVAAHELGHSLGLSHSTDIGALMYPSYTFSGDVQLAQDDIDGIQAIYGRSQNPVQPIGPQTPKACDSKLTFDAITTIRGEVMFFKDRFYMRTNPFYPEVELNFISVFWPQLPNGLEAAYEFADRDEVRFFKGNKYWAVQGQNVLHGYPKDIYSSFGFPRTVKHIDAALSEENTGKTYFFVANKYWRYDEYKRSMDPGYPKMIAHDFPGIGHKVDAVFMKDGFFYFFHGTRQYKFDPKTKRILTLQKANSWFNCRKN

Test [2] has as its target 72 kDa type IV collagenase (Homo sapiens, UniProt P08253).
The next test addresses Carbonic anhydrase 1 (Homo sapiens, UniProt P00915).

Sequence of 72 kDa type IV collagenase (P08253 whole entry): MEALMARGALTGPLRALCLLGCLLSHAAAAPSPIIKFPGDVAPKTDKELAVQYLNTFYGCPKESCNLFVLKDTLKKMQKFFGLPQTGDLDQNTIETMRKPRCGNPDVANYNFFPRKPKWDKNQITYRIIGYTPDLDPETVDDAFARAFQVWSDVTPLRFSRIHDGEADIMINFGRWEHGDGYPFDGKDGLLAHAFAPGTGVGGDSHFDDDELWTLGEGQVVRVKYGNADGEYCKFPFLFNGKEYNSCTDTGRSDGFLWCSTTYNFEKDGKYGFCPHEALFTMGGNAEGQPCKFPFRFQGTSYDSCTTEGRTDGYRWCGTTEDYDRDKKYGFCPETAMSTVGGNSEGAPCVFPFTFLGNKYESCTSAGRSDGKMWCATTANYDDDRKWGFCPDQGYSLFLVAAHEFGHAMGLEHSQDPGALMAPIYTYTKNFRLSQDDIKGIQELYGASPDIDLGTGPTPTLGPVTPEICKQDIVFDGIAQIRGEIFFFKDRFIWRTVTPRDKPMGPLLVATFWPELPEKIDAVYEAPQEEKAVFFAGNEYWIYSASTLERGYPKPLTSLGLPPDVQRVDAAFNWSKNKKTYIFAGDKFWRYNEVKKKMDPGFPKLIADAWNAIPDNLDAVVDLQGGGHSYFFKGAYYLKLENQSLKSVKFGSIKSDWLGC
Sequence of Neutrophil collagenase (P22894 whole entry): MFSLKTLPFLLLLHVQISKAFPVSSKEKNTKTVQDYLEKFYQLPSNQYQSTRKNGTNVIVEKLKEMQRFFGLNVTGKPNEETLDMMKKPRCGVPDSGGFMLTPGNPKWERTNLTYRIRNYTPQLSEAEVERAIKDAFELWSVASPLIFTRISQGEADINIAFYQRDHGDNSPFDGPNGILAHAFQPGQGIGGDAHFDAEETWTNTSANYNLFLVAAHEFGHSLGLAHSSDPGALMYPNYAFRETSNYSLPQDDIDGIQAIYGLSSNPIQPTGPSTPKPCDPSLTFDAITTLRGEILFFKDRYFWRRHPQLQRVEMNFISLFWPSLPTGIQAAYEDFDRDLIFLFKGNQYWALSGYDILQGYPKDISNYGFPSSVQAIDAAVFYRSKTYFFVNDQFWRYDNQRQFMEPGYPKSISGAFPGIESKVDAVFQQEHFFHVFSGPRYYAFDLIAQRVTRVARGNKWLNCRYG
Sequence of Matrix metalloproteinase-9 (P14780 whole entry): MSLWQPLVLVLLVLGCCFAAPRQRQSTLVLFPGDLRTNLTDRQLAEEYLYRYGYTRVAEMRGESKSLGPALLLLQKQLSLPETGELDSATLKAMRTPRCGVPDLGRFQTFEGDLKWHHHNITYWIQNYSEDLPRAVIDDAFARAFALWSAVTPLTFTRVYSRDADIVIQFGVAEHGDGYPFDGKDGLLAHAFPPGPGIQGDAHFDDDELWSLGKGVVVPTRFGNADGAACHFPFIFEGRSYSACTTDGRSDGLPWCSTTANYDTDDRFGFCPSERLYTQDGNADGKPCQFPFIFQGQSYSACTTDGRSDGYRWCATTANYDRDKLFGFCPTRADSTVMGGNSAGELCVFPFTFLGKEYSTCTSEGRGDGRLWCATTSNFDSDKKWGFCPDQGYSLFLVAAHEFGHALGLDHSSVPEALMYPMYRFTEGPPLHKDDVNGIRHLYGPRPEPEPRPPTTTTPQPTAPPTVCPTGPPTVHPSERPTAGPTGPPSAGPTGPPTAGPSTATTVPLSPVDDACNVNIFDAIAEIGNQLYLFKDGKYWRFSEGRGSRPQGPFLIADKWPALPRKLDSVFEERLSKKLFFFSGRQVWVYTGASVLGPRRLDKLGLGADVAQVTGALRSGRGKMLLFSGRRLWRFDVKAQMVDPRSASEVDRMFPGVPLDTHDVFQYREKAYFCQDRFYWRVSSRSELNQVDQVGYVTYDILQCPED
Sequence of Carbonic anhydrase 1 (P00915 whole entry): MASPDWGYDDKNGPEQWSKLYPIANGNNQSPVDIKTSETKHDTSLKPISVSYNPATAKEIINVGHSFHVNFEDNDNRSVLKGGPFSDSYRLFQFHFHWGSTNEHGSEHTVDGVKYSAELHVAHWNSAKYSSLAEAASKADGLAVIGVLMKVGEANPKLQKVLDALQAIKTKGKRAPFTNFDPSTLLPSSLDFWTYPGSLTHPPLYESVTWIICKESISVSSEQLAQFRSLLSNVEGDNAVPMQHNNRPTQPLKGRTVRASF

For `O=S(=O)(Cc1ccccc1)NO`, the inhibition constant (Ki) in test [1] was found to be 83 µM; on Neutrophil collagenase, 76 µM; at Interstitial collagenase, 95 µM; in test [2], 73 µM.

Take `O=S(=O)(NO)C(F)(F)F`: the Ki (in test [1]; on Neutrophil collagenase; on Interstitial collagenase; in test [2]) was above 100 µM throughout.

For `O=C(O)c1ccccc1S(=O)(=O)NO`, the Ki in test [1] amounted to 0.1 µM; at Neutrophil collagenase, 0.12 µM; at Interstitial collagenase it was 0.08 µM; in test [2], 0.09 µM.

With `O=S(=O)(NO)c1ccc(Cl)cc1`, the Ki in test [1] turned out to be 76 µM; at Neutrophil collagenase, 70 µM; at Interstitial collagenase it was 71 µM; in test [2], 70 µM.

Regarding `COc1ccc(S(=O)(=O)NO)cc1`, the Ki in test [1] came to 12 µM; at Neutrophil collagenase it was 16 µM; on Interstitial collagenase, 33 µM; in test [2], 14 µM.

Turning to `O=S(=O)(NO)C(Cl)(Cl)Cl`, the inhibitory constant (Ki) (in test [1]; at Neutrophil collagenase; at Interstitial collagenase; in test [2]) was above 100 µM each time.

For the molecule `O=[N+]([O-])c1cccc(S(=O)(=O)NO)c1`, the Ki in test [1] was determined as 13 µM; at Neutrophil collagenase, 16 µM; at Interstitial collagenase, 37 µM; in test [2], 23 µM.

As to `CC(=O)Nc1ccc(S(=O)(=O)NO)cc1`, the Ki in test [1] was 10 µM; at Neutrophil collagenase it was 12 µM; on Interstitial collagenase, 29 µM; in test [2], 9 µM.

For the molecule `CS(=O)(=O)NO`, the Ki (in test [1]; on Carbonic anhydrase 1; on Neutrophil collagenase; on Interstitial collagenase; in test [2]) was above 0.1 µM throughout.

Take `O=S(=O)(NO)C(F)(F)C(F)(F)C(F)(F)C(F)(F)C(F)(F)C(F)(F)C(F)(F)C(F)(F)F`: the Ki in test [1] amounted to 21 µM; on Neutrophil collagenase it was 23 µM; at Interstitial collagenase, 70 µM; in test [2], 14 µM.

`O=S(=O)(NO)c1cccc(C(F)(F)F)c1`: the Ki in test [1] worked out at 1.7 µM; at Neutrophil collagenase, 1.5 µM; on Interstitial collagenase, 0.9 µM; in test [2], 0.12 µM.

Regarding `CN(C)S(=O)(=O)NO`, the Ki (in test [1]; on Neutrophil collagenase; on Interstitial collagenase; in test [2]) was above 100 µM each time.

Take `O=S(=O)(NO)c1ccc(F)cc1`: the Ki in test [1] was 73 µM; on Neutrophil collagenase, 75 µM; at Interstitial collagenase it was 74 µM; in test [2], 72 µM.

Broadly, the Ki is a dissociation constant, usually derived from enzyme kinetics or from competition with a known ligand. The low end stands for higher affinity, the high end for lower affinity.

For the origin of these results see ChEMBL document CHEMBL1133677, “Carbonic anhydrase and matrix metalloproteinase inhibitors: sulfonylated amino acid hydroxamates with MMP inhibitory properties act as efficient inhibitors of CA isozymes I, II, and IV, and N-hydroxysulfonamides inhibit both these zinc enzymes” (J Med Chem, 2000).
